# Test results reported in PubChem BioAssay AID1963576 (National Center for Advancing Translational Sciences (NCATS), 2024).
# About 60 (0.1%) of roughly 46,000 compounds were called active. Roughly 3% stayed inconclusive and do not appear here. Calls follow the shape of the dose curve; as a rule, active = well fitted inhibition curve with a large enough effect; inconclusive = small, poorly fitted or top-dose-only effect; inactive = no such curve, though single readings can be large or run the other way. The list shows a part of the results.
# Assay: Primary qHTS assay for Inhibitors of ovarian cancer metastasis using an organotypic tumor microenvironment (TME) model. Also: nearly all actives have a fitted effect of over 65% in size.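 As to Potency: count of GFP cancer cells still attached after washing and fixation.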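 As to activity change, negative = inhibition: plate controls were DMSO wells for no effect and tomatine positive control wells for full effect.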
# Settings: SKOV3ip1-GFP adhesion/invasion on 3D omental model, fluorescence; series mostly up to 45.8 µM; activity change, negative = inhibition: at the top concentration
# Summary of the method: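 A 3D layer of primary human omental fibroblasts, mesothelial cells, fibronectin and collagen I, grown 48 hr, received SKOV3ip1-GFP cells in serum-free medium plus compounds at 0.36-46 umol/L. After 2 hr RT and 16 hr 37 C, fixed adherent GFP cells were counted; normalized to DMSO and tomatine.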
# Potency is read from the fitted curve at half-maximal effect.
SMILES,"activity change, negative = inhibition",outcome,Potency
COc1ccc(OC)c(Nc2ncnc3c2cnn3-c2cccc(Cl)c2)c1,inactive: -6.1%,–,–
Cc1ccc(C)c(CSc2ccc3nnc(CCNS(=O)(=O)c4ccccc4)n3n2)c1,inactive: 37.2%,–,–
CCCCC(=O)OC1=C(C(C)=O)N(Cc2ccccc2)S(=O)(=O)c2ccccc21,inactive: 11.2%,–,–
O=C(Cn1nc(-c2ccccc2)nc(Cc2ccccc2)c1=O)Nc1ccccc1,inactive: -2.81%,–,–
CCN(CC)CCNC(=O)C1CCN(c2cc(C)nc3c(-c4ccc(Cl)cc4)c(C)nn23)CC1,inactive: -7.08%,–,–
Cc1ccc(NS(=O)(=O)c2cnc(N)nc2)c(C)c1,inactive: -2.82%,–,–
O=C(NCCc1nc2ccccc2n1Cc1ccccc1)c1ccco1,inactive: 7.98%,–,–
Cc1ccc(CN2CCCn3nc(C(=O)NCc4ccc(OC(C)C)cc4)cc3C2=O)cc1,inactive: 3.98%,–,–
CCc1nn(CC(=O)Nc2cc(C)cc(C)c2)c(=O)c2cc3sccc3n12,–,inactive,–
Cc1nc(-n2nc(C)c(Cc3ccc4c(c3)OCO4)c2C)sc1C(=O)Nc1cccc(Cl)c1,inactive: -1.5%,–,–
CCN(CC)CCNC(=O)c1cc(-c2ccc(Br)s2)nc2ccccc12,–,–,active: 10 µM
CCOC(=O)c1cccc(NC(=O)c2ccc3nc(C(C)C)oc3c2)c1,inactive: -6.66%,–,–
CSc1ccc(CCNC(=O)CCc2c(C)nc3c(c(C)nn3-c3ccc(C)c(C)c3)c2C)cc1,–,inactive,–
COc1cc(-c2noc(CN3CCN(c4cccc(Cl)c4)CC3)n2)cc(OC)c1OC,inactive: -10.1%,–,–
CSc1cccc(NC(=O)CC(c2cccs2)N2Cc3ccccc3C2=O)c1 (stereo unspecified),inactive: -14.7%,–,–
CCOc1ccccc1NC(=O)N1CCN(C)c2ncccc21,inactive: 4.62%,–,–
CCCN(CCC)CCNC(=O)c1cc2c(-c3ccc(Cl)cc3)nn(C)c2s1,–,inactive,–
COc1ccc(Cn2c(=O)n(-c3ccccc3C)c(=O)c3c4c(sc32)CN(C(C)=O)CC4)cc1,inactive: 15%,–,–
Cc1ccc(CN2C(=O)CN(C3CCC(C)CC3)C(=O)C2c2ccc(F)cc2)cc1 (stereo unspecified),–,inactive,–
CCC(C(=O)Nc1nnc2n1CCS2)c1ccccc1 (stereo unspecified),inactive: -0.956%,–,–
O=C(Nc1cccc(Cl)c1Cl)c1cc2nc(-c3ccc(Cl)cc3)cc(C(F)(F)F)n2n1,inactive: 6.76%,–,–

SMILES,"activity change, negative = inhibition",outcome,Potency
CCOc1ccc(N(CC(=O)Nc2cc(C)ccc2C)S(=O)(=O)c2c(C)[nH]c(=O)[nH]c2=O)cc1,inactive: -3.34%,–,–
Cc1ccc(NC(=O)CCn2nc(C)c(S(=O)(=O)N3CCCCC3)c2C)cc1Cl,inactive: -20.9%,–,–
CCOC(=O)c1c(C)sc(-c2c(-c3cc(C)ccc3C)[nH]c3c2c(=O)n(C)c(=O)n3C)c1O,inactive: 2.31%,–,–
CC(C)CC(=O)Nc1ccc2nc(SCC(=O)N3CCCC3)sc2c1,–,inactive,–
COc1ccc(NC(=O)N2CCc3c(sc4c3CCCC4)C2c2ccccc2OC)cc1 (stereo unspecified),–,inactive,–
Cc1ccc(OCC(=O)NCC(c2ccc(Cl)cc2)N2CCCCC2)cc1 (stereo unspecified),inactive: 3.19%,–,–
Cc1ccc(C)c(CN2C(=O)c3ccccc3S(=O)(=O)c3ccc(C(=O)N4CCc5ccccc54)cc32)c1,inactive: -11.6%,–,–
CCCNC(=O)CSc1nc2ccccc2nc1Cc1ccc(Cl)cc1,inactive: 3.82%,–,–
CCN(c1ccc(C)cc1)S(=O)(=O)c1nnc(NC(=O)C2CCCCC2)s1,inactive: -2.39%,–,–
COc1ccc(CNS(=O)(=O)c2cc3c(cc2C)N(C)CCO3)cc1,inactive: -21.6%,–,–
Cc1ccc(Cn2cc(C(=O)c3ccc(F)cc3)c(=O)c3cc4c(cc32)OCO4)cc1,inactive: -19.2%,–,–
Cc1cccc(NC(=O)c2cc(S(=O)(=O)NCc3ccc4c(c3)OCO4)ccc2F)c1C,–,inactive,–
CCOC(=O)Cn1c(=O)n(CC2CCCO2)c2nc(-c3ccccc3F)nc(C(N)=O)c21 (stereo unspecified),–,inactive,–
Cc1ccc(CCNC(=O)c2cn(C)c3ccc(S(=O)(=O)N(C)C4CCCCC4)cc3c2=O)cc1,–,inactive,–
CCC1=Nc2cc(C(=O)NCC(C)c3ccccc3)ccc2Sc2ccc(C)cc21 (stereo unspecified),inactive: 26.7%,–,–
COC(=O)c1ccc(NC(=O)CCc2c(C)nc3c(-c4ccccc4)c(C)nn3c2C)cc1,inactive: -2.11%,–,–
CCn1c(CNC(=O)c2ccc(OC)cc2)nnc1SCC(=O)Nc1ccccc1,–,inactive,–
CCOC(=O)c1ccc(OCC2c3cc(OC)c(OC)cc3CCN2C(=O)c2ccc(S(=O)(=O)N3CCCC3)cc2)cc1 (stereo unspecified),inactive: -1.08%,–,–
COc1ccc(-n2c(C)c(C(C)=O)c3cc(OC(=O)c4ccc(C)cc4)ccc32)cc1,inactive: -22.9%,–,–
CCN1CCN(c2ncnc3c2cnn3-c2ccc(C)c(Cl)c2)CC1,–,inactive,–
CC(Oc1ccc(F)cc1)C(=O)Nc1nc(-c2ccc(F)cc2)ns1 (stereo unspecified),–,inactive,–

SMILES,"activity change, negative = inhibition",outcome,Potency
COc1ccc(C)cc1S(=O)(=O)NCC(c1cccs1)S(=O)(=O)c1ccc(C)cc1 (stereo unspecified),inactive: -2.55%,–,–
COc1ccc(-c2noc(-c3ccc(N4CCCC4)c([N+](=O)[O-])c3)n2)cc1,inactive: 8.2%,–,–
COc1ccc(-c2nc3scc(CCNS(=O)(=O)c4ccccc4F)n3n2)cc1,–,inactive,–
CCn1nnc2cc(C(=O)Nc3cccc(Cl)c3C)ccc21,inactive: -2.51%,–,–
COc1ccc(Cn2c(CNS(=O)(=O)c3ccc(C)c(C)c3)nc3cccnc32)cc1,–,inactive,–
CCOC(=O)Cc1ccc(NC(=O)Nc2ccccc2OCc2cc(=O)n3ccccc3n2)cc1,inactive: -25%,–,–
O=C(NCc1ccc2c(c1)CCN2C(=O)c1ccccc1)Nc1cc(F)ccc1F,inactive: -9.83%,–,–
COc1ccccc1-n1c(=O)c2c3c(sc2n(C)c1=O)CN(C(C)=O)CC3,–,inactive,–
CCN(CC)C(=O)c1sc2c(c1C)c(=O)n(Cc1ccccc1)c(=O)n2Cc1ccc(Cl)cc1,inactive: 11.8%,–,–
CCc1cccc(-n2nnc(-c3nc(-c4ccccc4Cl)no3)c2N)c1,inactive: -8.33%,–,–
COc1ccc(Nc2nc3ccccc3c3nnc(C)n23)cc1Cl,inactive: -5.51%,–,–
CCN(C(=O)CCn1cnc2onc(-c3ccc(F)cc3)c2c1=O)c1ccc(OC)cc1,inactive: 3.5%,–,–
Cn1nnc2c(NCCc3ccccc3)ncnc21,inactive: 22.6%,–,–
Cc1ccc(-c2noc(CSc3nnc(Cc4ccccc4)n3-c3cccc(C)c3)n2)cc1,–,inactive,–
O=C(NCC(c1cccnc1)N1CCc2ccccc2C1)C(=O)Nc1ccc(Cl)cc1 (stereo unspecified),inactive: 2.76%,–,–
Cc1ccc(NC(=O)CSc2cn(CC(=O)N3CCCCCC3)c3ccccc23)cc1,inactive: 1.8%,–,–
CCSc1ncc(Cl)c(C(=O)Nc2c(C(=O)c3ccc(C)c(F)c3)oc3ccccc23)n1,inactive: -0.94%,–,–
COc1ccccc1NC(=O)c1c(NC(=O)c2ccco2)sc2c1CCC(C(C)(C)C)C2 (stereo unspecified),inactive: 4.12%,–,–
CC(=O)c1cccc(NC(=O)c2c(N3CCCC3=O)c3cc(F)ccc3n2C)c1,inactive: -19.1%,–,–
